Experimental data: PubChem BioAssay AID504845 (National Center for Advancing Translational Sciences (NCATS), 2011)
The campaign covered roughly 390,000 compounds. About 150 (0.038%) were called active. This list was built around the results that the source calls inconclusive (neither active nor inactive); the mix of calls is not that of the screen. The call rests on the fitted dose curve; in most records, active means well fitted inhibition curve with a large enough effect; inconclusive means small, poorly fitted or top-dose-only effect; inactive means no such curve, though single readings can be large or run the other way. Where the call is inconclusive, the potency comes from a doubtful curve fit. More than one record can exist for a structure, and the calls need not agree. Residues, ends and D or L forms follow the SMILES beside them.

Molecular target: Regulator of G-protein signaling 4 (Homo sapiens) (UniProt P49798)
Experiment: Inhibitors of Regulator of G Protein Signaling (RGS) 4: qHTS; further: nearly all actives have a fitted effect of over 75% in size
Details: Transcreener GDP fluorescence polarization, RGS4-accelerated GTP hydrolysis; series mostly up to 114 µM
How it was run: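 MLSMR compounds (23 nl, pin-transferred) preincubated 10 min at room temperature with a 500nM (2x) first reagent, then RGS4 at 900nM (2x) plus Transcreener GDP mix added; fluorescence polarization (620/688 nm) read before and after 90 min at 30 °C.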
On the % scale 0 is the no-effect control and ±100 the full control effect; potency means the concentration at half of the fitted maximal effect; tags describe the fitted curve by direction and shape.

Sequence of UniProt P49798 (P49798 whole entry, looked up): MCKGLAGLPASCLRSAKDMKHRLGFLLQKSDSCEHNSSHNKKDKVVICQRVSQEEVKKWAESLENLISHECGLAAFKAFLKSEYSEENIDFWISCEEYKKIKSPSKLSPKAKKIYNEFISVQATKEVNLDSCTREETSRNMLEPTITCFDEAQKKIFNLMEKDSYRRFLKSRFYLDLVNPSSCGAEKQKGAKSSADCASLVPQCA

Molecule	Potency	activity change, negative = inhibition
Cc1cccc(N2C(=O)NC(=O)/C(=C\c3cnc(-c4ccccc4)nc3)C2=O)c1	inconclusive: 50.1 µM [inhibitor, partial curve, poor fit]	–
CCOc1cc(/C=C2/C(=O)NC(=O)N(c3ccc(CC)cc3)C2=O)ccc1OC(=O)c1cccs1	inconclusive: 17.8 µM [inhibitor, full curve, poor fit]	–
COc1cc(/C=C2\C(=O)NC(=O)N(c3ccccc3)C2=O)cc(OC)c1O	inactive	–
COc1ccc2cc(C(=O)C3CCCN(C4CCOCC4)C3)ccc2c1 (centres undefined)	inconclusive: 79.4 µM [inhibitor, single point]	–
Cc1ccc(C2N3CCCN23)cc1 (centres undefined)	inactive	–
COc1cc(C=C2C(=O)NC(=O)NC2=O)ccc1OCc1ccc([N+](=O)[O-])cc1	inconclusive: 39.8 µM [inhibitor, partial curve, poor fit]	–
COc1ccc(OC)c(N2C(=O)/C(=C/c3ccco3)C(=O)NC2=S)c1	inconclusive: 25.1 µM [inhibitor, full curve, poor fit]	–
Cc1cccc(CN2C(=O)CN=C(c3ccccc3)c3ccccc32)c1	inactive	–
CCOP(=O)(/C(C#N)=C(\C)O)c1ccccc1 (centres undefined)	inconclusive: 25.1 µM [inhibitor, full curve, poor fit]	–
Brc1c(Br)c(Br)c2n[nH]nc2c1Br	inconclusive: 23.8 µM [inhibitor, single point]	–
COc1ccc(-n2c(O)c(/C=C3\C=Nc4ccc(Br)cc43)c(=O)[nH]c2=O)c(OC)c1	inconclusive: 44.7 µM [inhibitor, partial curve, poor fit]	–
CC(=O)N1CCN(CC(=O)Nc2ccc(C#N)c(Cl)c2)CC1	inactive	–
COC(=O)N(c1ccccc1)P1(=S)OCCO1	inconclusive: 79.4 µM [inhibitor, partial curve, poor fit]	–
CC(C)N1C(=O)/C(=C/C=C/c2ccco2)C(=O)N(Cc2ccco2)C1=O	–	inactive: -22.7% [at 11.4 µM]
O=[N+]([O-])c1ccc(C2C3C(c4ccccc4)=NC4(CCCC4)N32)cc1 (centres undefined)	inconclusive: 89.1 µM [inhibitor, single point]	–
O=C1NC(=O)N(Cc2ccc(F)cc2)C(=O)/C1=C\c1ccc([N+](=O)[O-])s1	inconclusive: 20 µM [inhibitor, full curve, poor fit]	–
O=C1NC(=O)C(CCc2ccncc2)(CCc2ccncc2)C(=O)N1Cc1ccccc1	inconclusive: 31.6 µM [inhibitor, partial curve, poor fit]	–
O=C(CN1CCOCC1)c1ccc2cc[nH]c2c1	inconclusive: 79.4 µM [inhibitor, single point]	–
O=C(COc1ccccc1)N1CCN(CC(O)COc2ccccc2)CC1 (centres undefined)	inactive	–
COc1ccc(Cn2c(N)c(C(=O)NCc3ccco3)c3nc4ccccc4nc32)cc1OC	inconclusive: 17.8 µM [inhibitor, full curve, poor fit]	–
CCOc1cc(C=C2C(=O)NC(=S)NC2=O)ccc1O	inconclusive: 17.8 µM [inhibitor, full curve, poor fit]	–
Cc1cccc(NC(=O)c2cnc3sccn3c2=O)n1	inconclusive: 89.1 µM [inhibitor, single point]	–

Molecule	Potency	activity change, negative = inhibition
CCN(CCO)c1ccc(N=Cc2c(O)n(C)c(=S)[nH]c2=O)cc1	inconclusive: 50.1 µM [inhibitor, partial curve, poor fit]	–
Oc1ccccc1O	inconclusive: 18.9 µM [inhibitor, partial curve, poor fit]	–
CCCCCCCn1c(=O)c(C(=O)Nc2cnccn2)c(O)c2ccccc21	inactive	–
Cn1c(O)c(/C=N/N2CCOCC2)c(=O)n(-c2ccccc2)c1=S	inconclusive: 79.4 µM [inhibitor, single point]	–
CCCOc1ccc2[nH]cc(C3=CCNCC3)c2n1	inactive	–
CCCc1[nH][nH]c(=O)c1C(c1ccccc1)C(C#N)C#N (centres undefined)	inconclusive: 50.1 µM [inhibitor, partial curve, poor fit]	–
COc1ccc(Cc2nccc3cc(OC)c(OC)cc23)cc1OC	inconclusive: 89.1 µM [inhibitor, single point]	–
CC1CCC[C@H](O)CCCCCc2cc(O)cc(O)c2C(=O)O1 (some centres undefined)	inactive	–
CC1OC(OC2C(O)CC(OC3C(O)CC(OC4CCC5(C)C(CCC6C5CCC5(C)C(C7=CC(=O)OC7)C(O)CC65O)C4)OC3C)OC2C)CC(O)C1O (centres undefined)	inconclusive: 70.8 µM [inhibitor, single point]	–
CN1/C(=C\C=C2C(=O)NC(=S)NC2=O)C(C)(C)c2ccccc21	inconclusive: 79.4 µM [inhibitor, partial curve, poor fit]	–
Cc1ccc(Cn2cccc(C(=O)Nc3ccc4c(c3)OCCO4)c2=O)cc1	inconclusive: 79.4 µM [inhibitor, single point]	–
CN1CCN(CCC(C#N)(c2ccccc2)c2ccccc2)CC1	inactive	–
Cc1ccc(O)c(C)c1	inactive	–
CCN(CC)C(=O)c1ccc(NC(=O)c2ccc(-c3nn(C)c(=O)c4ccccc34)cc2)cc1	inconclusive: 79.4 µM [inhibitor, partial curve, poor fit]	–
O=C(N/N=C/C1C(=O)NC(=S)N(c2ccccc2)C1=O)c1cc(Br)c(O)c(Br)c1 (centres undefined)	inconclusive: 20 µM [inhibitor, full curve, poor fit]	–
CC1CCC(C(C)C)C(OC(=O)Cn2c(COc3ccccc3)[n+](C)c3ccccc32)C1 (centres undefined)	inactive	–
CNCCc1c[nH]c2ccc(O)cc12	inconclusive: 23.8 µM [inhibitor, single point]	–
CN(C)c1ccc(/C=C2\C(=O)NC(=O)N(Cc3ccc(F)cc3)C2=O)cc1	inconclusive: 70.8 µM [inhibitor, single point]	–
COc1ccc(/C=C/C=C2C(=O)NC(=S)NC2=O)cc1	inconclusive: 17.8 µM [inhibitor, full curve, poor fit]	–
COC(=O)c1ccccc1N=Cc1c(O)[nH]c(=S)[nH]c1=O	inconclusive: 44.7 µM [inhibitor, partial curve, poor fit]	–
CCCC(=O)NC(Oc1ccccc1Cl)C(Cl)(Cl)Cl (centres undefined)	inactive	–
H-YPFVEPI-OH	inconclusive: 23.8 µM [inhibitor, partial curve, poor fit]	–

Molecule	Potency	activity change, negative = inhibition
O=C(c1cccc(Cl)c1)C1CCCN(Cc2cccc3cnccc23)C1 (centres undefined)	inconclusive: 50.1 µM [inhibitor, partial curve, poor fit]	–
O=C1NC(=O)C(=Cc2coc3ccccc3c2=O)C(=O)N1	inconclusive: 20 µM [inhibitor, full curve, poor fit]	–
COc1ccc(Cc2c(O)[nH]c(=S)[nH]c2=O)cc1	inactive	–
Fc1ccc(C(OCCN2CCN(CCCc3ccccc3)CC2)c2ccc(F)cc2)cc1	active: 37.7 µM	–
O=C1NC2C(=CC(O)C(O)C2O)c2cc3c(c(O)c21)OCO3 (centres undefined)	inconclusive: 100 µM [inhibitor, single point]	–
CC(C)(C)NCC(O)c1cc(Cl)c(N)c(Cl)c1 (centres undefined)	inconclusive: 0.119 µM [inhibitor, full curve, poor fit]	–
COC(=O)C1=CCCN(C)C1	inconclusive: 3.36 µM [inhibitor, partial curve, poor fit]	–
C=C(C)[C@H]1Cc2c(ccc3c2O[C@@H]2COc4cc(OC)c(OC)cc4[C@@H]2C3=O)O1	inconclusive: 21.2 µM [inhibitor, partial curve, poor fit]	–
NC(=O)CNC(=O)[C@H](Cc1ccccc1)NC(=O)[C@H](CCCN=C(N)N)NC(=O)[C@@H](N)Cc1ccc(O)cc1 (H-YRFG-NH2)	inconclusive: 0.119 µM [inhibitor, full curve, poor fit]	–
Cc1ccc(OCC(=O)N2CCN(Cc3ccc4c(c3)OCO4)CC2)cc1	inconclusive: 28.2 µM [inhibitor, full curve, poor fit]	–
S=C(c1ccc(Cl)cc1)N1CCOCC1	inconclusive: 100 µM [inhibitor, single point]	–
Cc1ccc(N2C(=O)NC(=O)/C(=C/c3ccc(OC(=O)c4cccs4)cc3)C2=O)cc1	inconclusive: 56.2 µM [inhibitor, partial curve, poor fit]	–
O=C(/C=C/c1ccc(Cl)cc1)N[C@@]12CCC(=O)[C@@H]3Oc4c(O)ccc5c4[C@@]31CCN(CC1CC1)C2C5	inconclusive: 0.844 µM [inhibitor, full curve, poor fit]	–
Cc1ccc(N2C(=O)NC(=O)/C(=C\c3ccoc3)C2=O)cc1	inconclusive: 70.8 µM [inhibitor, single point]	–
CCOC(=O)N1CCN(/[N+]([O-])=N/Oc2ccc([N+](=O)[O-])cc2[N+](=O)[O-])C(C)C1 (centres undefined)	inconclusive: 79.4 µM [inhibitor, partial curve, poor fit]	–
COc1cc(OC)cc(C(=O)Nc2ccc(Cl)cc2C(=O)c2ccccc2Cl)c1	inactive	–
N#CC1=C(N)Oc2c(c(=O)sc3ccccc23)C1c1ccncc1 (centres undefined)	inactive	–
O=C1NC(=O)C(=Cc2ccccc2[N+](=O)[O-])C(=O)N1	inconclusive: 56.2 µM [inhibitor, partial curve, poor fit]	–
[O-]/[N+](=C/c1cccnc1)c1ccc(Br)cc1	inconclusive: 89.1 µM [inhibitor, partial curve, poor fit]	–
S=C(Nc1ccc(Br)cc1Cl)N1CCC2(CC1)OCCO2	inconclusive: 17.8 µM [inhibitor, full curve, poor fit]	–
